In assay [1] the test system is HSkMC (human skeletal muscle cells). Briefly: cytotoxicity call (relative viability < 0.9). The note with it: 10 µM.
For assay [2], the system named is HepG2. Briefly: cytotoxicity call (relative viability < 0.9). The note with it: 10 µM.
In assay [3] the test system is S. aureus RN4220. Briefly: growth inhibition call (relative growth <= 0.2). The note with it: 50 µM.

Molecules are shown by their SMILES. This is one part of the list.

With `C[C@@H]1CCCCO[C@@H](CN(C)Cc2ccccc2)[C@@H](C)CN([C@H](C)CO)C(=O)c2cc(NC(=O)Nc3ccc4c(c3)OCO4)ccc2O1`, the cytotoxicity call in assay [1] and in assay [2] was “inactive” throughout. Besides, the growth inhibition call in assay [3] was “inactive”.
In the case of `O=C(C[C@@H]1C=C[C@@H](NS(=O)(=O)c2ccc(F)cc2)[C@H](CO)O1)NCc1ccc(Cl)c(Cl)c1`, the cytotoxicity call in assay [1] and in assay [2] was “inactive” each time. The growth inhibition call in assay [3] was “inactive”.
With `C[C@@H]1CCCCO[C@H](CN(C)CC2CCCCC2)[C@@H](C)CN([C@H](C)CO)C(=O)c2cc(NC(=O)CCCN(C)C)ccc2O1`, the cytotoxicity call in assay [1] and in assay [2] was “inactive” throughout. Besides, the growth inhibition call in assay [3] was “inactive”.
As to `COc1ccc(NC(=O)N(C)C[C@@H]2Oc3c(NC(=O)C4CCOCC4)cccc3C(=O)N([C@H](C)CO)C[C@H]2C)cc1`, the cytotoxicity call in assay [1] and in assay [2] was “inactive” throughout. The growth inhibition call in assay [3] was “inactive”.
As for `COCCNC(=O)C[C@H]1CC[C@H](NS(=O)(=O)c2ccc(C)cc2)[C@@H](CO)O1`, the cytotoxicity call in assay [1] and in assay [2] was “inactive” each time. The growth inhibition call in assay [3] is “inactive”.
As to `CC1(C)CC2C1CCC1(C)OC1CCC2(C)O` (stereo not given), the cytotoxicity call in assay [1] and in assay [2] was “inactive” in each case. The growth inhibition call in assay [3] was “inactive”.
On to `COc1ccc(NC(=O)N(C)C[C@@H]2OCCCC[C@@H](C)Oc3ccc(NS(=O)(=O)c4c(C)noc4C)cc3C(=O)N([C@H](C)CO)C[C@@H]2C)cc1`, for which the cytotoxicity call in assay [1] and in assay [2] was “inactive” throughout. The growth inhibition call in assay [3] was “inactive”.
Consider `C[C@@H]1CN([C@H](C)CO)C(=O)c2cc(NS(=O)(=O)c3ccc(Cl)cc3)ccc2O[C@@H](C)CCCCO[C@@H]1CN(C)C(=O)Cc1ccccc1`, for which, in assay [1], the cytotoxicity call was “inactive”. In assay [2], the cytotoxicity call was “active”. In assay [3], the growth inhibition call was “inactive”.
For the molecule `CN1CCN(CCO)C(=O)C12CCN([C@H]1CCOC1)CC2`, the cytotoxicity call in assay [1] and in assay [2] was “inactive” in each case. Besides, in assay [3], the growth inhibition call was “inactive”.
For the molecule `COc1ccc(CN(C)C[C@H]2OCCCC[C@@H](C)Oc3ccc(NC(=O)CCCCCC(=O)Nc4ccccc4N)cc3C(=O)N([C@H](C)CO)C[C@@H]2C)cc1`, the cytotoxicity call in assay [1] and in assay [2] was “inactive” each time. For the same molecule, the growth inhibition call in assay [3] is “inactive”.
For the molecule `C[C@@H]1CN([C@H](C)CO)C(=O)c2cccc(NC(=O)CCCCCC(=O)Nc3ccccc3N)c2O[C@H]1CN(C)Cc1ccccc1`, the cytotoxicity call in assay [1] and in assay [2] was “inactive” in each case. Besides, the growth inhibition call in assay [3] was “inactive”.
As for `C[C@H](CO)N1C[C@H](C)[C@H](CN(C)C(=O)Nc2ccc3c(c2)OCO3)OCCCC[C@H](C)Oc2ccc(NC(=O)C3CCCCC3)cc2C1=O`, the cytotoxicity call in assay [1] and in assay [2] was “inactive” each time. Further, in assay [3], the growth inhibition call was “inactive”.
As for `CONC(=O)Nc1ccc(-c2sc3c(c2CN(C)Cc2ccccc2)c(=O)n(-c2ccccc2)c(=O)n3Cc2c(F)cccc2F)cc1`, the cytotoxicity call in assay [1] and in assay [2] was “inactive” in each case. Moreover, the growth inhibition call in assay [3] was “inactive”.
For the molecule `C[C@H](CO)N1C[C@H](C)[C@@H](CN(C)Cc2ccc(C(F)(F)F)cc2)OCCCC[C@H](C)Oc2ccc(NC(=O)Nc3ccc4c(c3)OCO4)cc2C1=O`, the cytotoxicity call in assay [1] and in assay [2] was “inactive” throughout. Also, the growth inhibition call in assay [3] was “inactive”.
For the molecule `C[C@H]1CN([C@@H](C)CO)C(=O)c2cccc(NC(=O)Nc3ccc(F)cc3)c2O[C@@H]1CN(C)C(=O)Nc1cccc2ccccc12`, the cytotoxicity call in assay [1] and in assay [2] was “inactive” throughout. Moreover, the growth inhibition call in assay [3] is “inactive”.
Take `CCc1nc2ccc(C(=O)Nc3cccc(OCC(=O)N(C)C)c3)cn2c1N(C)CCN1CCOCC1`: the cytotoxicity call in assay [1] and in assay [2] was “inactive” in each case. In assay [3], the growth inhibition call was “inactive”.
With `C[C@H]1CN([C@@H](C)CO)S(=O)(=O)c2ccc(Br)cc2O[C@H]1CN(C)Cc1ccc(F)cc1`, the cytotoxicity call in assay [1] and in assay [2] was “inactive” in each case. The growth inhibition call in assay [3] is “inactive”.
As to `CCc1nc2ccc(C(=O)N3CCN(S(=O)(=O)CC)CC3)cn2c1N(CC)C(=O)CCC1CCCC1`, the cytotoxicity call in assay [1] and in assay [2] was “inactive” each time. Moreover, the growth inhibition call in assay [3] is “inactive”.
Turning to `C[C@H]1CN([C@@H](C)CO)C(=O)c2cc(NC(=O)Nc3cccc4ccccc34)ccc2O[C@H]1CN(C)C(=O)NC1CCCCC1`, the cytotoxicity call in assay [1] and in assay [2] was “inactive” each time. Moreover, the growth inhibition call in assay [3] was “inactive”.
As to `C[C@H]1CN=C(NS(=O)(=O)c2ccccc2)N1`, the cytotoxicity call in assay [1] and in assay [2] was “inactive” throughout. Further, the growth inhibition call in assay [3] was “inactive”.
For `O=C(C[C@@H]1CC[C@@H]2[C@H](COC[C@@H](O)CN2C(=O)Nc2ccc3c(c2)OCO3)O1)N1CCN(c2ccccc2)CC1`, the cytotoxicity call in assay [1] and in assay [2] was “inactive” each time. In assay [3], the growth inhibition call is “inactive”.
For `COc1ccc(NC(=O)N(C)C[C@H]2OCCCC[C@@H](C)Oc3ccc(NC(=O)Nc4ccc(F)cc4)cc3C(=O)N([C@@H](C)CO)C[C@H]2C)cc1`, the cytotoxicity call in assay [1] and in assay [2] was “inactive” throughout. Besides, in assay [3], the growth inhibition call was “inactive”.
For `Cc1noc(C)c1NC(=O)Nc1ccc2c(c1)C(=O)N([C@@H](C)CO)C[C@@H](C)[C@H](CN(C)S(=O)(=O)c1cn(C)cn1)O2`, the cytotoxicity call in assay [1] and in assay [2] was “inactive” in each case. Besides, the growth inhibition call in assay [3] was “inactive”.
Consider `CC(C)(C)OC(=O)NCc1nnc(N)[nH]1`, for which the cytotoxicity call in assay [1] and in assay [2] was “inactive” each time. Moreover, the growth inhibition call in assay [3] is “inactive”.
As to `COc1ccc(NC(=O)Nc2ccc3c(c2)C(=O)N([C@H](C)CO)C[C@H](C)[C@H](CN(C)S(=O)(=O)c2ccccc2)OCCCC[C@@H](C)O3)cc1`, the cytotoxicity call in assay [1] and in assay [2] was “inactive” each time. In addition, the growth inhibition call in assay [3] is “inactive”.

The values above are taken from the antibiotic and cytotoxicity screens of Wong et al. (2023).
